# Changes are numbered by the printed parent chain. In names and notes the source's numbering stands. Several values for one entry are separate records, joined by “and”; a condition that tells them apart may be missing. Equal entries are not always repeated.
# T1: human CD19 on cells (human, UniProt P15391 20-556)
# T1 construct: also called CD19-expressing tumor cells WSU-DLCL2; OCI-Ly18
# T1 sequence: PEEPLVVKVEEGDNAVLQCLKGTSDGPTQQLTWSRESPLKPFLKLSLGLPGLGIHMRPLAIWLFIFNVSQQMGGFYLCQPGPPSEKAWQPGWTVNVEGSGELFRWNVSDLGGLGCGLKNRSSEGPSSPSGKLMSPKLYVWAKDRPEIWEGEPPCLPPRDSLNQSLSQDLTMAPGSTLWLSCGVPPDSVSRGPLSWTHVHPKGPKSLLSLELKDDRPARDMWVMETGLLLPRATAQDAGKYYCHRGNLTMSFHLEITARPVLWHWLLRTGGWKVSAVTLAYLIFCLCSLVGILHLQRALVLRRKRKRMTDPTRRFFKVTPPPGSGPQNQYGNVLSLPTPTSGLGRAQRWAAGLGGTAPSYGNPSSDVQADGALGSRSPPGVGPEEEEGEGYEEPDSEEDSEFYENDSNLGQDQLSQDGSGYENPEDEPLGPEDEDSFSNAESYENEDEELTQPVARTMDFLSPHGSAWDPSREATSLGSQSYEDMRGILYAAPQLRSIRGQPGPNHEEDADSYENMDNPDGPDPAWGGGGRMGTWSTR
# B1: monovalent CD19(8B8-018) targeted split trimeric 4-1BB ligand (71-248) Fc (kih) fusion antigen binding molecule with crossed CH-CL and charged residues … (Fc fusion)
# chain 1: REGPELSPDDPAGLLDLRQGMFAQLVAQNVLLIDGPLSWYSDPGLAGVSLTGGLSYKEDTKELVVAKAGVYYVFFQLELRRVVAGEGSGSVSLALHLQPLRSAAGAAALALTVDLPPASSEARNSAFGFQGRLLHLSAGQRLGVHLHTEARARHAWQLTQGATVLGLFRVTPEIPAGLGGGGSGGGGSREGPELSPDDPAGLLDLRQGMFAQLVAQNVLLIDGPLSWYSDPGLAGVSLTGGLSYKEDTKELVVAKAGVYYVFFQLELRRVVAGEGSGSVSLALHLQPLRSAAGAAALALTVDLPPASSEARNSAFGFQGRLLHLSAGQRLGVHLHTEARARHAWQLTQGATVLGLFRVTPEIPAGLGGGGSGGGGSRTVAAPSVFIFPPSDRKLKSGTASVVCLLNNFYPREAKVQWKVDNALQSGNSQESVTEQDSKDSTYSLSSTLTLSKADYEKHKVYACEVTHQGLSSPVTKSFNRGE[human IgG1 Fc with changes omitted here]
# chain 2: REGPELSPDDPAGLLDLRQGMFAQLVAQNVLLIDGPLSWYSDPGLAGVSLTGGLSYKEDTKELVVAKAGVYYVFFQLELRRVVAGEGSGSVSLALHLQPLRSAAGAAALALTVDLPPASSEARNSAFGFQGRLLHLSAGQRLGVHLHTEARARHAWQLTQGATVLGLFRVTPEIPAGLGGGGSGGGGSASTKGPSVFPLAPSSKSTSGGTAALGCLVEDYFPEPVTVSWNSGALTSGVHTFPAVLQSSGLYSLSSVVTVPSSSLGTQTYICNVNHKPSNTKVDEKVEPKSC
# heavy: QVQLVQSGAEVKKPGASVKVSCKASGYTFTDYIMHWVRQAPGQGLEWMGYINPYNDGSKYTEKFQGRVTMTSDTSISTAYMELSRLRSDDTAVYYCARGTYYYGSALFDYWGQGTTVTVSSASTKGPSVFPLAPSSKSTSGGTAALGCLVKDYFPEPVTVSWNSGALTSGVHTFPAVLQSSGLYSLSSVVTVPSSSLGTQTYICNVNHKPSNTKVDKKVEPKSCDKTHTCPPCPAPEAAGGPSVFLFPPKPKDTLMISRTPEVTCVVVDVSHEDPEVKFNWYVDGVEVHNAKTKPREEQYNSTYRVVSVLTVLHQDWLNGKEYKCKVSNKALGAPIEKTISKAKGQPREPQVCTLPPSRDELTKNQVSLSCAVKGFYPSDIAVEWESNGQPENNYKTTPPVLDSDGSFFLVSKLTVDKSRWQQGNVFSCSVMHEALHNHYTQKSLSLSPGK
# light: DIVMTQTPLSLSVTPGQPASISCKSSQSLENPNGNTYLNWYLQKPGQSPQLLIYRVSKRFSGVPDRFSGSGSGTDFTLKISRVEAEDVGVYYCLQLTHVPYTFGQGTKLEIKRTVAAPSVFIFPPSDEQLKSGTASVVCLLNNFYPREAKVQWKVDNALQSGNSQESVTEQDSKDSTYSLSSTLTLSKADYEKHKVYACEVTHQGLSSPVTKSFNRGEC
# B2: monovalent CD19(8B8-018)-targeted 4-1BB ligand (71-248) trimer-containing Fc (kih) fusion antigen binding molecule (Construct 3.11) (Fc fusion)
# chain: DKTHTCPPCPAPEAAGGPSVFLFPPKPKDTLMISRTPEVTCVVVDVSHEDPEVKFNWYVDGVEVHNAKTKPREEQYNSTYRVVSVLTVLHQDWLNGKEYKCKVSNKALGAPIEKTISKAKGQPREPQVCTLPPSRDELTKNQVSLSCAVKGFYPSDIAVEWESNGQPENNYKTTPPVLDSDGSFFLVSKLTVDKSRWQQGNVFSCSVMHEALHNHYTQKSLSLSPGGGGGSGGGGSREGPELSPDDPAGLLDLRQGMFAQLVAQNVLLIDGPLSWYSDPGLAGVSLTGGLSYKEDTKELVVAKAGVYYVFFQLELRRVVAGEGSGSVSLALHLQPLRSAAGAAALALTVDLPPASSEARNSAFGFQGRLLHLSAGQRLGVHLHTEARARHAWQLTQGATVLGLFRVTPEIPAGLGGGGSGGGGSREGPELSPDDPAGLLDLRQGMFAQLVAQNVLLIDGPLSWYSDPGLAGVSLTGGLSYKEDTKELVVAKAGVYYVFFQLELRRVVAGEGSGSVSLALHLQPLRSAAGAAALALTVDLPPASSEARNSAFGFQGRLLHLSAGQRLGVHLHTEARARHAWQLTQGATVLGLFRVTPEIPAGL
# heavy: QVQLVQSGAEVKKPGASVKVSCKASGYTFTDYIMHWVRQAPGQGLEWMGYINPYNDGSKYTEKFQGRVTMTSDTSISTAYMELSRLRSDDTAVYYCARGTYYYGSALFDYWGQGTTVTVSSASTKGPSVFPLAPSSKSTSGGTAALGCLVKDYFPEPVTVSWNSGALTSGVHTFPAVLQSSGLYSLSSVVTVPSSSLGTQTYICNVNHKPSNTKVDKKV[human IgG1 Fc with changes omitted here]GGGGSGGGGSREGPELSPDDPAGLLDLRQGMFAQLVAQNVLLIDGPLSWYSDPGLAGVSLTGGLSYKEDTKELVVAKAGVYYVFFQLELRRVVAGEGSGSVSLALHLQPLRSAAGAAALALTVDLPPASSEARNSAFGFQGRLLHLSAGQRLGVHLHTEARARHAWQLTQGATVLGLFRVTPEIPAGL
# light: B1 light
# notes: Human IgG1 Fc knob-into-hole with P329G, L234A, L235A; one CD19(8B8-018) Fab on the knob chain
# B3: monovalent CD19-targeted 4-1BB ligand (71-254) trimer-containing Fc (kih) fusion antigen binding molecule (Construct 4.1) (Fc fusion)
# chain 1: [about 200 residues omitted here]GGGGSGGGGSREGPELSPDDPAGLLDLRQGMFAQLVAQNVLLIDGPLSWYSDPGLAGVSLTGGLSYKEDTKELVVAKAGVYYVFFQLELRRVVAGEGSGSVSLALHLQPLRSAAGAAALALTVDLPPASSEARNSAFGFQGRLLHLSAGQRLGVHLHTEARARHAWQLTQGATVLGLFRVTPEIPAGLPSPRSEGGGGSGGGGSRTVAAPSVFIFPPSDRKLKSGTASVVCLLNNFYPREAKVQWKVDNALQSGNSQESVTEQDSKDSTYSLSSTLTLSKADYEKHKVYACEVTHQGLSSPVTKSFNRGE[human IgG1 Fc with changes omitted here]
# chain 2: [about 200 residues omitted here][about 120 residues omitted here]
# heavy: B1 heavy with S105P, A106Q
# light: B1 light with N31T, P32S, N33T, N35T, T97L, H98E, V99D
# notes: also called positive control construct 4.1
# Key:
# [1] = target: T2, human 4-1BB (CD137) on cells (human, UniProt Q07011 24-255); experiment: cell-based or functional assay
# [2] = target: T2, human 4-1BB (CD137) on cells; experiment: flow cytometry on activated human PBMCs (anti-CD3/anti-CD28 beads, 48 h), gated on CD4 T cells
# [3] = target: T2, human 4-1BB (CD137) on cells; experiment: flow cytometry on activated human PBMCs (anti-CD3/anti-CD28 beads, 48 h), gated on CD8 T cells
# [4] = target: T1, human CD19 on cells; experiment: flow cytometry on CD19+ WSU-DLCL2 cells, PE anti-human IgG detection
Nalm6 EC50 [nM] (NFkB luciferase reporter assay with 4-1BB HeLa cells and CD19-expressing cells) [1],OCI-Ly18 EC50 [nM] (NFkB luciferase reporter assay with 4-1BB HeLa cells and CD19-expressing cells) [1],SU-DHL-8 EC50 [nM] (NFkB luciferase reporter assay with 4-1BB HeLa cells and CD19-expressing cells) [1],EC50 [2],EC50 [3],EC50 [4],Binder
0.03 nM,0.03 nM,0.03 nM,,,,B1
0.03 nM,0.03 nM,0.03 nM,0.13 nM and 0.02 µg/mL,0.06 µg/mL and 0.38 nM,0.38 nM and 0.06 µg/mL,B2
0.02 nM,0.03 nM,0.03 nM,0.11 nM and 0.02 µg/mL,0.05 µg/mL and 0.28 nM,0.17 nM and 0.03 µg/mL,B3
